This note sets out measurements from article PMC7076219 (2020).

In assay [1] the target is T1, CD44/HCELL (hematopoietic cell E- and/or L-selectin ligand) (human (endogenous in KG1a), UniProt P16070-12 21-361). As to the kind of experiment: SPR. In general terms: SPR reads the build-up and loss of mass on a sensor chip optically.
Assay [2] deals with T1, CD44/HCELL (hematopoietic cell E- …). Put plainly: SPR. This is another data set of the same source.

Values joined by “and” are separate entries in the source; they are usually repeats but may differ in a detail not shown here. Equal entries are not always repeated.

B1: E-S6-IgG (mouse E-selectin extracellular region fused to the Fc region of human IgG1, from silkworm) (Fc fusion)
chain: WYYNASSELMTYDEASAYCQRDYTHLVAIQNKEEINYLNSNLKHSPSYYWIGIRKVNNVWIWVGTGKPLTEEAQNWAPGEPNNKQRNEDCVEIYIQRTKDSGMWNDERCNKKKLALCYTASCTNASCSGHGECIETINSYTCKCHPGFLGPNCEQAVTCKPQEHPDYGSLNCSHPFGPFSYNSSCSFGCKRGYLPSSMETTVRCTSSGEWSAPAPACHVVECEALTHPAHGIRKCSSNPGSYPWNTTCTFDCVEGYRRVGAQNLQCTSSGIWDNETPSCKAVTCDAIPQPQNGFVSCSHSTAGELAFKSSCNFTCEQSFTLQGPAQVECSAQGQWTPQIPVCKAVQCEALSAPQQGNMKCLPSASGPFQNGSSCEFSCEEGFELKGSRRLQCGPRGEWDSKKPTCSAVKCDDVPRPQNGVMECAHATTGEFTYKSSCAFQCNEGFSLHGSAQLECTSQGKWTQEVPSCQVVQCPSLDVPGKMNMSCSGTAVFGTVCEFTCPDDWTLNGSAVLTCGATGRWSGMPPTCEAPVSPTR[human IgG1 Fc with C220S (EU numbers) not given here]
As to B1, in assay [1], binding was put at a Kd of 190 nM. In addition, in assay [2], the dissociation rate constant (koff) (in general, the rate constant with which the complex falls apart) was 0.000214 s⁻¹ and 0.00014 s⁻¹.
